# Assay results taken from the supplement of paper PMC8728848.
# This is one part of the list.
# B1: PV12658A-bvu-496-32-496 (Bacteroides vulgatus) (protein)
# chain: DLDGAITTPAAVELALNGIYYSLPGNGFNVIFPTVSGSFKAGTMWRQEIVSAGNAVYYSERMLPTLSFSDATEWDADYAVIKNANFLETACNRMSDGEFSGNRRAEVLGEIAYLRALAYFNILVRYCEFWDMNSEYGVVMRNEAPSVSNALKARSSVADSYQYILDQLEIAIEKAPDWKKLSQASKEAAKALKARVLLYAGKYTEAVAAVNDAIDTNSPLPEANYGDVFDKFSTTKEILFARVFDQKDATNTSTRQQCYGNSPTKKQGYWGPTNEYVELVGDDPRADAIFSKVDSLMDSRSSAVAYNLKSVKKLLNDANDMPVIFSRVSELYLIKAEALYRSGASISEAYAPIRKLRERAGAEIILPANNEELETAIFNEWMLELSFENWHEWFAMIRFAGYTEKPDFTRLLALNKTLREALEKEYEKSEAQGDNYYQRIIDRRIDAIPSSEISSNLECKQNPGY
# How the values were obtained:
# Assay in all cases: glycan array binding signal (z-score within array); higher = stronger binding
# Details in all cases: glycan notation: IUPAC condensed, linker removed
# Gal(b1-2)Gal = molecular target: Gal(b1-2)Gal
# In short: (§1)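 Arrays were curated from the Consortium for Functional Glycomics database, 3228 in total, and kept only where the protein sequence was available. Binding is expressed as a within-array Z-score. This score was averaged across arrays of the same protein sequence at different concentrations or buffers and across linkers, and negative values can be read as non-binding.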
# Gal(b1-3)Gal = molecular target: Gal(b1-3)Gal
# In short: as §1
# Gal(b1-3)Gal(b1-4)GlcNAc = molecular target: Gal(b1-3)Gal(b1-4)GlcNAc
# In short: as §1
# Gal(b1-3)GalNAc = molecular target: Gal(b1-3)GalNAc
# In short: as §1
# [1] = molecular target: Gal(b1-3)GalNAc(a1-3)[Fuc(a1-2)]Gal(b1-4)Glc
# In short: as §1
# [2] = molecular target: Gal(b1-3)GalNAc(a1-3)[Fuc(a1-2)]Gal(b1-4)GlcNAc
# In short: as §1
# Gal(b1-3)GalNAc(b1-3)Gal = molecular target: Gal(b1-3)GalNAc(b1-3)Gal
# In short: as §1
# [3] = molecular target: Gal(b1-3)GalNAc(b1-3)Gal(a1-4)Gal(b1-4)Glc
# In short: as §1
# [4] = molecular target: Gal(b1-3)GalNAc(b1-4)Gal(b1-4)Glc
# In short: as §1
# [5] = molecular target: Gal(b1-3)GalNAc(b1-4)[Neu5Ac(a2-3)]Gal(b1-4)Glc
# In short: as §1
# Gal(b1-3)GlcNAc = molecular target: Gal(b1-3)GlcNAc
# In short: as §1
# [6] = molecular target: Gal(b1-3)GlcNAc(a1-3)Gal(b1-4)GlcNAc
# In short: as §1
# [7] = molecular target: Gal(b1-3)GlcNAc(a1-6)Gal(b1-4)GlcNAc
# In short: as §1
# Gal(b1-3)GlcNAc(b1-2)Man = molecular target: Gal(b1-3)GlcNAc(b1-2)Man
# In short: as §1
# [8] = molecular target: Gal(b1-3)GlcNAc(b1-2)Man(a1-3)[Gal(b1-3)GlcNAc(b1-2)Man(a1-6)]Man(b1-4)GlcNAc(b1-4)GlcNAc
# In short: as §1
# [9] = molecular target: Gal(b1-3)GlcNAc(b1-2)Man(a1-3)[Gal(b1-3)GlcNAc(b1-2)Man(a1-6)]Man(b1-4)GlcNAc(b1-4)[Fuc(a1-6)]GlcNAc
# In short: as §1
# [10] = molecular target: Gal(b1-3)GlcNAc(b1-2)Man(a1-3)[GlcNAc(b1-4)][Gal(b1-3)GlcNAc(b1-2)Man(a1-6)]Man(b1-4)GlcNAc(b1-4)GlcNAc
# In short: as §1
# [11] = molecular target: Gal(b1-3)GlcNAc(b1-2)[Gal(b1-3)GlcNAc(b1-6)]Man(a1-6)[Gal(b1-3)GlcNAc(b1-2)Man(a1-3)]Man(b1-4)GlcNAc(b1-4)GlcNAc
# In short: as §1
# [12] = molecular target: Gal(b1-3)GlcNAc(b1-3)Gal(b1-3)GlcNAc
# In short: as §1
# [13] = molecular target: Gal(b1-3)GlcNAc(b1-3)Gal(b1-4)Glc
# In short: as §1
# [14] = molecular target: Gal(b1-3)GlcNAc(b1-3)Gal(b1-4)GlcNAc
# In short: as §1
# [15] = molecular target: Gal(b1-3)GlcNAc(b1-3)Gal(b1-4)GlcNAc(b1-2)Man(a1-3)[Gal(b1-3)GlcNAc(b1-3)Gal(b1-4)GlcNAc(b1-2)Man(a1-6)]Man(b1-4)GlcNAc(b1-4)GlcNAc
# In short: as §1
# [16] = molecular target: Gal(b1-3)GlcNAc(b1-3)Gal(b1-4)GlcNAc(b1-2)[Gal(b1-3)GlcNAc(b1-3)Gal(b1-4)GlcNAc(b1-6)]Man(a1-6)[Gal(b1-3)GlcNAc(b1-3)Gal(b1-4)GlcNAc(b1-2)Man(a1-3)]Man(b1-4)GlcNAc(b1-4)[Fuc(a1-6)]GlcNAc
# In short: as §1
# [17] = molecular target: Gal(b1-3)GlcNAc(b1-3)Gal(b1-4)GlcNAc(b1-3)Gal(b1-4)GlcNAc(b1-2)[Gal(b1-3)GlcNAc(b1-3)Gal(b1-4)GlcNAc(b1-3)Gal(b1-4)GlcNAc(b1-6)]Man(a1-6)[Gal(b1-3)GlcNAc(b1-3)Gal(b1-4)GlcNAc(b1-3)Gal(b1-4)GlcNAc(b1-2)Man(a1-3)]Man(b1-4)GlcNAc(b1-4)[Fuc(a1-6)]GlcNAc
# In short: as §1
# [18] = molecular target: Gal(b1-3)GlcNAc(b1-3)Gal(b1-4)GlcNAc(b1-6)[Gal(b1-3)GlcNAc(b1-3)]Gal(b1-4)Glc
# In short: as §1
# [19] = molecular target: Gal(b1-3)GlcNAc(b1-3)Gal(b1-4)[Fuc(a1-3)]GlcNAc
# In short: as §1
# [20] = molecular target: Gal(b1-3)GlcNAc(b1-3)Gal(b1-4)[Fuc(a1-3)]GlcNAc(b1-6)[Gal(b1-3)GlcNAc(b1-3)]Gal(b1-4)Glc
# In short: as §1
# [21] = molecular target: Gal(b1-3)GlcNAc(b1-3)GalNAc
# In short: as §1
# [22] = molecular target: Gal(b1-3)GlcNAc(b1-6)Gal(b1-4)GlcNAc
# In short: as §1
# [23] = molecular target: Gal(b1-3)GlcNAc(b1-6)GalNAc
# In short: as §1
# [24] = molecular target: Gal(b1-3)GlcNAc(b1-6)[Gal(b1-3)]GalNAc
# In short: as §1
# Gal(b1-3)GlcNAc6S = molecular target: Gal(b1-3)GlcNAc6S
# In short: as §1
# [25] = molecular target: Gal(b1-3)[Fuc(a1-4)]GlcNAc
# In short: as §1
# [26] = molecular target: Gal(b1-3)[Fuc(a1-4)]GlcNAc(b1-2)Man
# In short: as §1
# [27] = molecular target: Gal(b1-3)[Fuc(a1-4)]GlcNAc(b1-2)Man(a1-3)[Gal(b1-3)[Fuc(a1-4)]GlcNAc(b1-2)Man(a1-6)]Man(b1-4)GlcNAc(b1-4)[Fuc(a1-6)]GlcNAc
# In short: as §1
# [28] = molecular target: Gal(b1-3)[Fuc(a1-4)]GlcNAc(b1-3)Gal(b1-3)[Fuc(a1-4)]GlcNAc
# In short: as §1
# [29] = molecular target: Gal(b1-3)[Fuc(a1-4)]GlcNAc(b1-3)Gal(b1-4)[Fuc(a1-3)]GlcNAc
# In short: as §1
# [30] = molecular target: Gal(b1-3)[Fuc(a1-4)]GlcNAc(b1-6)GalNAc
# In short: as §1
# [31] = molecular target: Gal(b1-3)[GlcNAc(b1-6)]GalNAc
# In short: as §1
# [32] = molecular target: Gal(b1-3)[Neu5Ac(a2-6)]GalNAc
# In short: as §1
# [33] = molecular target: Gal(b1-3)[Neu5Ac(a2-6)]GlcNAc(b1-4)Gal(b1-4)Glc
# In short: as §1
# [34] = molecular target: Gal(b1-3)[Neu5Ac(b2-6)]GalNAc
# In short: as §1
# Gal(b1-4)Gal = molecular target: Gal(b1-4)Gal
# In short: as §1
# [35] = molecular target: Gal(b1-4)GalNAc(a1-3)[Fuc(a1-2)]Gal(b1-4)GlcNAc
# In short: as §1
# [36] = molecular target: Gal(b1-4)GalNAc(b1-3)[Fuc(a1-2)]Gal(b1-4)GlcNAc
# In short: as §1
binder,measurement,setting,value
B1,glycan array binding signal (z-score),Gal(b1-2)Gal,-0.301
same,glycan array binding signal (z-score),Gal(b1-3)Gal,-0.433
same,glycan array binding signal (z-score),Gal(b1-3)Gal(b1-4)GlcNAc,0.806
same,glycan array binding signal (z-score),Gal(b1-3)GalNAc,-0.376
same,glycan array binding signal (z-score),[1],-0.045
same,glycan array binding signal (z-score),[2],-0.389
same,glycan array binding signal (z-score),Gal(b1-3)GalNAc(b1-3)Gal,-0.547
same,glycan array binding signal (z-score),[3],-0.12
same,glycan array binding signal (z-score),[4],0.963
same,glycan array binding signal (z-score),[5],1.17
same,glycan array binding signal (z-score),Gal(b1-3)GlcNAc,-0.316
same,glycan array binding signal (z-score),[6],-0.456
same,glycan array binding signal (z-score),[7],-0.176
same,glycan array binding signal (z-score),Gal(b1-3)GlcNAc(b1-2)Man,0.552
same,glycan array binding signal (z-score),[8],0.146
same,glycan array binding signal (z-score),[9],-0.422
same,glycan array binding signal (z-score),[10],-0.106
same,glycan array binding signal (z-score),[11],0.707
same,glycan array binding signal (z-score),[12],-0.308
same,glycan array binding signal (z-score),[13],-0.133
same,glycan array binding signal (z-score),[14],-0.185
same,glycan array binding signal (z-score),[15],0.288
same,glycan array binding signal (z-score),[16],6.34
same,glycan array binding signal (z-score),[17],1.57
same,glycan array binding signal (z-score),[18],1.05
same,glycan array binding signal (z-score),[19],-0.533
same,glycan array binding signal (z-score),[20],-0.307
same,glycan array binding signal (z-score),[21],-0.358
same,glycan array binding signal (z-score),[22],-0.021
same,glycan array binding signal (z-score),[23],-0.133
same,glycan array binding signal (z-score),[24],0.719
same,glycan array binding signal (z-score),Gal(b1-3)GlcNAc6S,-0.203
same,glycan array binding signal (z-score),[25],-0.39
same,glycan array binding signal (z-score),[26],-0.193
same,glycan array binding signal (z-score),[27],0.012
same,glycan array binding signal (z-score),[28],-0.354
same,glycan array binding signal (z-score),[29],-0.493
same,glycan array binding signal (z-score),[30],1.6
same,glycan array binding signal (z-score),[31],-0.214
same,glycan array binding signal (z-score),[32],-0.254
same,glycan array binding signal (z-score),[33],0.29
same,glycan array binding signal (z-score),[34],-0.451
same,glycan array binding signal (z-score),Gal(b1-4)Gal,-0.244
same,glycan array binding signal (z-score),[35],-0.089
same,glycan array binding signal (z-score),[36],-0.423
